Columns and labels:
[1] = target: T1, Polyclonal human IgG Gammanorm (human); test: dynamic binding capacity, ligand coupled to Praesto Pure85 resin, polyclonal hIgG load
T1 construct: Polyclonal mixture of human IgG, bought; also called hIgG; polyclonal hIgG

[2] = target: T2, Panitumab (IgG2); test: SPR, Biacore 3000, 25 C, Langmuir 1:1
T2 construct: Used as the hIgG2 target in SPR; also called hIgG2

[3] = target: Natalizumab (IgG4); test: SPR, Biacore 3000, 25 C, Langmuir 1:1
Sequence of Natalizumab (IgG4) (VH, as listed by the source, chain 1 of 2): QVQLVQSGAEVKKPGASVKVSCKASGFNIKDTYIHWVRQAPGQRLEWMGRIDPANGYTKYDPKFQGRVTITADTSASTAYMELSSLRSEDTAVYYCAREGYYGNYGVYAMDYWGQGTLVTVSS
Sequence of Natalizumab (IgG4) (VL, as listed by the source, chain 2 of 2): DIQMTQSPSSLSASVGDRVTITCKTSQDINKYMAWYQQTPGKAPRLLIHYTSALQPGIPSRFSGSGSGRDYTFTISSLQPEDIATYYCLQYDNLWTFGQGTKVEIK

B1: Ig binding protein cs26, CID 203447 (parent, cs26 43C) (designed binder)
chain: IAAQHDKDQQAAFYEILHLPNLTEEQRNAFIQSLRDDPSVSLCILAEAKKLNDAQAPK
notes: Parent molecule
Question: Which results are given for B1?
Answer: DBC10% at 6 min residence time [1]: 54.9 mg/mL; Kd [2]: 0.0232 µM; Kd [3]: 0.0027 µM

B2: Ig binding protein CID 203550, cs26 variant D8I (designed binder)
chain: IAAQHDKIQQAAFYEILHLPNLTEEQRNAFIQSLRDDPSVSLCILAEAKKLNDAQAPK
notes: also called cs26 8I; variant 8I
Question: Which “DBC10% at 6 min residence time” value [1] does the source give for B2 here?
Answer: Its value is 56.6 mg/mL.

Question: What about the Kd [2] of the same binder?
Answer: Its Kd is 0.0206 µM.

Question: And the Kd [3]?
Answer: Its Kd is 0.0024 µM.

B3: Ig binding protein CID 203704, cs26 variant N28H (designed binder)
chain: IAAQHDKDQQAAFYEILHLPNLTEEQRHAFIQSLRDDPSVSLCILAEAKKLNDAQAPK
notes: also called cs26 28H
Question: Which “DBC10% at 6 min residence time” value [1] does the source give for B3 here?
Answer: The value was 56 mg/mL.

Question: And the Kd [2]?
Answer: The Kd was 0.107 µM.

Question: What about the Kd [3] of the same binder?
Answer: The Kd was 0.02 µM.

B4: Ig binding protein CID 203524, cs26 variant D6L (designed binder)
chain: IAAQHLKDQQAAFYEILHLPNLTEEQRNAFIQSLRDDPSVSLCILAEAKKLNDAQAPK
notes: also called variant 6L
Question: Which Kd [2] does the source give for B4 here?
Answer: Its Kd is 0.11 µM.

Question: And the Kd [3]?
Answer: Its Kd is 0.004 µM.

Source: US12570690 (NAVIGO PROTEINS, dated 2026)
